Experimental data as given in PubChem BioAssay AID504333 (National Center for Advancing Translational Sciences (NCATS), 2011).
Screen size: about 360,000 compounds; about 16,000 (4.4%) were called active. The inconclusive results got no clear call from the source; some entries with a clear call stand among them for comparison. The call rests on the fitted dose curve; in most records, active means well fitted inhibition curve with a large enough effect; inconclusive means small, poorly fitted or top-dose-only effect; inactive means no such curve, though single readings can be large or run the other way. Potencies of inconclusive entries are doubtful fits and often do not repeat.

biological target: Bromodomain adjacent to zinc finger domain protein 2B (Homo sapiens) (UniProt Q9UIF8); test: qHTS Assay for Inhibitors of BAZ2B; conditions: AlphaScreen BAZ2B-H3K14Ac peptide displacement; activity change, negative = inhibition: at 114 µM (top of the series) unless noted; further: nearly all actives have a fitted effect of over 60% in size
Method in brief: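 AlphaScreen displacement of biotin-H3(5-23)K14Ac peptide (50 nM final) from BAZ2B (50 nM final) in PBS pH 7.4, 0.01% Tween-20; complex preformed 30 min RT, then compounds (top 110 uM) 30 min RT, beads 20 min dark.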
On the % scale 0 is the no-effect control and ±100 the full control effect; potency means the concentration at half of the fitted maximal effect; tags describe the fitted curve by direction and shape.

UniProt Q9UIF8, sequence (Q9UIF8 whole entry, looked up, the tested form may be a part): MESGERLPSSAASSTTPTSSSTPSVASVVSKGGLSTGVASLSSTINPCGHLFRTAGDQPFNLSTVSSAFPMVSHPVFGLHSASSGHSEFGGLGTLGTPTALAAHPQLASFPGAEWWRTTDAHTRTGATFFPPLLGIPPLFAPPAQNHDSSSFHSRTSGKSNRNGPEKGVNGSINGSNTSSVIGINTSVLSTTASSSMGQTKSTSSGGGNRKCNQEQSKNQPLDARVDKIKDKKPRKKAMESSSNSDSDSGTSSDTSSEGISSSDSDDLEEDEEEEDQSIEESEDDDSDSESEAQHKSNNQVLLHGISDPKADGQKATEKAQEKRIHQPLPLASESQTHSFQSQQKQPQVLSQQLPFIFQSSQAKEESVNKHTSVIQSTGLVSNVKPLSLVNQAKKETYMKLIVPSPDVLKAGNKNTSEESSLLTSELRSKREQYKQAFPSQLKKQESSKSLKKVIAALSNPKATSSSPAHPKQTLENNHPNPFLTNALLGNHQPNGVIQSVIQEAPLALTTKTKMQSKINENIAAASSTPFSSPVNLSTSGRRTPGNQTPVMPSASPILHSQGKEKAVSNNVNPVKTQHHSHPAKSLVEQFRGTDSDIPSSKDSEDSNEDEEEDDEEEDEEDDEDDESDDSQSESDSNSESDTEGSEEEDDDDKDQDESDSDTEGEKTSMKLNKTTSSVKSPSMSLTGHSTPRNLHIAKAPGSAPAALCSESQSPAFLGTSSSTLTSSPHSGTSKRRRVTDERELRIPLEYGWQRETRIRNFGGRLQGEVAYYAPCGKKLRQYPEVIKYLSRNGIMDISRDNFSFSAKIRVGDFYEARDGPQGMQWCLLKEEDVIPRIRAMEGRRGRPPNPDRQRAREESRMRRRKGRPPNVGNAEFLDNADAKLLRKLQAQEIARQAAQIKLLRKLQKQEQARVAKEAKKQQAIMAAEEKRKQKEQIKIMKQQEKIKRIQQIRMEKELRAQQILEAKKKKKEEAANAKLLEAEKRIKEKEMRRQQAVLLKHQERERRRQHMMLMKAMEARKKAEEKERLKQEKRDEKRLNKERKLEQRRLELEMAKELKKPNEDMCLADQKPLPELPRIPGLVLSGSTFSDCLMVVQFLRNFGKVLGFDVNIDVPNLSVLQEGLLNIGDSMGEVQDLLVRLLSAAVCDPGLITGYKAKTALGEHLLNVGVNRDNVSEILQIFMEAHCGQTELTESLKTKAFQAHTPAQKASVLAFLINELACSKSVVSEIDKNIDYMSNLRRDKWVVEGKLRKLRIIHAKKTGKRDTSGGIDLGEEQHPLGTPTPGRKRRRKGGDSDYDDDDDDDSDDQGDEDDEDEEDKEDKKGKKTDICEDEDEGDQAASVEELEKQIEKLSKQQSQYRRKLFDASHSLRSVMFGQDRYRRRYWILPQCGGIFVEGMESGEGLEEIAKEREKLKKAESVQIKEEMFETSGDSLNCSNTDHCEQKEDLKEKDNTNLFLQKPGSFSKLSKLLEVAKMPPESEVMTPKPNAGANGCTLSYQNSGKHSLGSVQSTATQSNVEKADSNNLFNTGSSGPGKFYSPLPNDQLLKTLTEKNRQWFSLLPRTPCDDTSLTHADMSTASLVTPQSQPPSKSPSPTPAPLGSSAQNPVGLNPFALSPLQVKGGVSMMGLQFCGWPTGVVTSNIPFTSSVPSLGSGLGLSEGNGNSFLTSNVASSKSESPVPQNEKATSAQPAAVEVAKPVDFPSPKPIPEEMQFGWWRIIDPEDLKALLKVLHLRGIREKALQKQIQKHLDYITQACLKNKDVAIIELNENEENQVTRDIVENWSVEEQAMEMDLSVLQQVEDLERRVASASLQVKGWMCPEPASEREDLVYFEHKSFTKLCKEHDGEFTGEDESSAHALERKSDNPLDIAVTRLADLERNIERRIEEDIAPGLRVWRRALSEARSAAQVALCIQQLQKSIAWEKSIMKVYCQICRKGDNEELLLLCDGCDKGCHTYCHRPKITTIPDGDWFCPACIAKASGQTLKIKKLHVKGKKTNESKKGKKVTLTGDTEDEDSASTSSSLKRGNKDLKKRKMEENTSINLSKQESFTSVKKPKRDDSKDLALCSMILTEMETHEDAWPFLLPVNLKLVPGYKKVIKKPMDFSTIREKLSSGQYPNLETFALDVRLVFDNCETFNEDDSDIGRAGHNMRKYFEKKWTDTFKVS

SMILES | activity change, negative = inhibition | Potency
COc1ccc(-c2nc(CN3CCCC(C(=O)NC4CCCC4)C3)c(C)o2)cc1 (configuration not stated) | inactive: -2.93% | –
C=CCN1C=C2C(=O)C(C)(OC(=O)CCC(=O)OC)C(=O)C(Br)=C2C=C1c1ccc(OC)cc1 (configuration not stated) | – | inconclusive: 79.4 µM [inhibitor, single point]
O=C(c1ccco1)N1CCCN(Cc2nc(Cc3ccccc3)no2)CC1 | – | inconclusive: 89.1 µM [inhibitor, single point]
Cc1ccc(OCCCN(C)C)c(Br)c1 | – | active: 79.4 µM
Cc1c(/C=C/C(=O)c2ccccc2)cnn1C | – | inconclusive: 79.4 µM [inhibitor, partial curve]
C=CCn1c(COc2ccc(OC)cc2)nc2ccccc21 | – | inconclusive: 89.1 µM [inhibitor, single point]
CCCCCc1cc(=O)oc2c(C(CCN3CCCC3)c3ccc(N(C)C)cc3)c(OC)cc(OC)c12 (configuration not stated) | – | active: 8.91 µM
COc1cc2nc(N(CCN(C)C)C(=O)c3ccc(S(=O)(=O)N(C)CC4CCCO4)cc3)sc2cc1OC (configuration not stated) | – | inconclusive: 79.4 µM [inhibitor, single point]
C[n+]1ccccc1C1CCCC/C1=N\Nc1ccc([N+](=O)[O-])cc1[N+](=O)[O-] (configuration not stated) | – | inconclusive: 89.1 µM [inhibitor, single point]
O=C(Nc1ccc2c(c1)CCCN2C(=O)c1cccs1)c1ccccc1C(F)(F)F | inactive: -16.6% | –
Cc1cccc(Nc2c([N+](=O)[O-])c(=O)n(C)c3ccccc23)c1 | – | inconclusive: 89.1 µM [inhibitor, single point]
Cc1cc(C(=O)COc2cccnc2[N+](=O)[O-])c(C)n1Cc1cccs1 | – | inconclusive: 50.1 µM [inhibitor, partial curve]
COc1ccccc1C(=O)O/N=C(/c1ccncc1)c1ccc([N+](=O)[O-])cc1 | – | inconclusive: 50.1 µM [inhibitor, partial curve]
COc1ccc(N2C(=O)[C@H]3[C@@H](C2=O)C2c4ccccc4C=NN2[C@H]3C(=O)C(C)(C)C)cc1 (some centres not stated) | – | inconclusive: 79.4 µM [inhibitor, single point]
COc1ccc(/C=C\C(=O)c2c(O)ccc3c(C)cc(=O)oc23)cc1 | – | inconclusive: 89.1 µM [inhibitor, single point]
COc1ccc(CNC(=O)CCc2c(C)nn(-c3ccc(N4CCCC4)nn3)c2C)cc1 | – | active: 79.4 µM
CCn1nc(C)c(C2C(C#N)=C(N)OC3=C2C(=O)CCC3)c1C (configuration not stated) | inactive: 12.4% | –
CO/N=C/c1ccc(N2CCN(C(=O)c3cccc(C(F)(F)F)c3)CC2)c([N+](=O)[O-])c1 | – | inconclusive: 25.1 µM [inhibitor, full curve]
Oc1c(CN2CCCC2)cc(COCc2ccccc2)c2cccnc12 | – | active: 17.8 µM
Cc1nc(S/C(=C/c2ccc(OCc3ccc(C(=O)O)cc3)cc2)C(=O)O)n[nH]1 | – | inconclusive: 5.01 µM [inhibitor, full curve, poor fit]
COc1cc(Cl)c(NS(=O)(=O)c2cc3[nH]c(=O)c(=O)[nH]c3cc2C)c(OC)c1 | – | inconclusive: 89.1 µM [inhibitor, single point]
Cc1ccccc1OCC(=O)Nc1ccc2c(c1)n(C)c(=O)n2C | – | inconclusive: 79.4 µM [inhibitor, single point]
CCS(=O)(=O)N1CC(=O)N(c2cc(Cl)ccc2C)C(C)(C(=O)NC2CCCCCC2)C1 (configuration not stated) | inactive: 4.01% | –
Cc1ccc(NC(=S)N2CCN(S(=O)(=O)c3ccccc3)CC2)cc1C | – | inconclusive: 70.8 µM [inhibitor, single point]

SMILES | activity change, negative = inhibition | Potency
Cc1ccc(NC(=O)Cn2cncc2-c2ccc([N+](=O)[O-])cc2)cc1C | – | inconclusive: 89.1 µM [inhibitor, single point]
COc1cnc(-c2ccccn2)nc1Sc1ccc(F)cc1 | – | active: 28.2 µM
COc1ccc(Br)cc1CNCc1c(C(=O)O)c(C)n(Cc2ccccc2C)c1C | – | inconclusive: 35.5 µM [inhibitor, partial curve]
COc1ccc(-n2nc(C(=O)O)c3ccccc3c2=O)cc1 | – | inconclusive: 89.1 µM [inhibitor, single point]
COc1ccc(NC(=S)N2CCCC(c3nc4ccc(C)cc4[nH]3)C2)c(OC)c1 (configuration not stated) | – | inconclusive: 22.4 µM [inhibitor, full curve]
O=C(O)CCS(=O)(=O)Cc1ccccc1F | – | inconclusive: 89.1 µM [inhibitor, partial curve]
Oc1cccc(/C=N/Nc2cc(N3CCCC3)nc(N3CCCC3)n2)c1 | – | active: 44.7 µM
O=C1CN(c2ccccc2Cl)C(=O)CN1c1ccccc1Cl | inactive: 9.8% | –
COC(=O)C1CCN(C2=C(NS(=O)(=O)c3ccc(Cl)cc3)C(=O)c3ccccc3C2=O)CC1 | – | active: 11.2 µM
Cc1ccc(CNC(=O)/C=C/c2ccc(Br)o2)cc1 | – | inconclusive: 89.1 µM [inhibitor, single point]
CN1CCN(c2oc(-c3ccco3)nc2S(=O)(=O)c2ccccc2)CC1 | inactive: 3.21% | –
Cc1cccc(N2CCN(C(=O)CS(=O)(=O)Cc3nc(-c4ccccc4F)oc3C)CC2C)c1 (configuration not stated) | – | inconclusive: 50.1 µM [inhibitor, partial curve]
Oc1c(Br)cc(/C=N/NC(=S)NCC2CCCO2)cc1Br (configuration not stated) | – | inconclusive: 79.4 µM [inhibitor, single point]
Cc1ccc(NC(=O)N2C3CCCC2CC(NC(=O)C(C)(C)C)C3)cc1 (configuration not stated) | inactive: 7.86% | –
Cc1nc2nc(CNC(=O)OC(C)(C)C)nn2c(C)c1CCC(=O)NCc1ccccc1Cl | inactive: 6.15% | –
CCc1ccc(N=Nc2ccc(O)c3[nH]cnc23)cc1 | – | inconclusive: 31.6 µM [inhibitor, full curve]
Cc1ccc(CN=Cc2[nH]c3ccc(Br)c(Cl)c3c2O)cc1 | – | inconclusive: 79.4 µM [inhibitor, single point]
CC1CCN(c2[nH]c(=S)c(C#N)c3c2CCCC3)CC1 | inactive: 8.31% | –
CN(Cc1ccccn1)Cc1nc(-c2ccc(Cl)cc2)no1 | – | inconclusive: 79.4 µM [inhibitor, partial curve]
Cc1cc(C)c(NC(=O)CCN2CCCCC2)c(C)c1 | inactive: -0.47% | –
O=C(NCCc1cn2ccccc2n1)c1cc(COc2c(F)cccc2F)on1 | – | inconclusive: 79.4 µM [inhibitor, single point]
Clc1ccc(SCCCCN2CCOCC2)cc1 | – | active: 31.6 µM
CN(C)c1ccc(C(=S)NCc2ccco2)cc1 | – | inconclusive: 31.6 µM [inhibitor, partial curve]
O=C(NNS(=O)(=O)c1cccc(Cl)c1Cl)c1cccc(S(=O)(=O)N2CCOCC2)c1 | inactive: 2.56% | –

SMILES | activity change, negative = inhibition | Potency
O=C(CNCc1cccs1)Nc1ccc(OC(F)(F)F)cc1 | – | active: 28.2 µM
O=C(Cn1cncn1)NCc1ccccc1Br | inactive: -1.74% | –
COc1cc(/C=N/NC(=O)c2c(C)nc3ccc(Cl)cn23)cc(OC)c1OC | – | inconclusive: 89.1 µM [inhibitor, single point]
COc1ccc(NC(=O)CN(C)C(=O)C23CC4CC(CC(C4)C2)C3)cc1 | inactive: -3.41% | –
Cc1ccc(NC(=S)c2nc3ccccc3[nH]2)c(C)c1 | – | active: 28.2 µM
Cc1ccoc1C(=O)Nc1ccc(CC(=O)O)cc1 | – | inconclusive: 89.1 µM [inhibitor, single point]
O=[N+]([O-])c1ccc(Cl)c(C2Nc3cccc4cccc(c34)N2)c1 | – | active: 17.8 µM
COc1cc(Br)c(CN2CCCN(C)CC2)cc1OC | inactive: -26.9% | –
CCCCN(CC)CCNC(=O)C1CCN(c2nnc(C)c3c(C)n(-c4ccc(C)cc4)nc23)CC1 | inactive: -15.7% | –
COc1cccc(/C=C/C(=O)OCC(=O)c2c[nH]c3ccccc23)c1OC | inactive: 0.128% | –
COc1ccc(-n2c(C)cc(/C=C3\C(=N)N4N=C(CC(=O)N5CCOCC5)SC4=NC3=O)c2C)cc1 | – | active: 44.7 µM
Oc1ccccc1C1NN=C(c2ccccc2)S1 (configuration not stated) | – | active: 17.8 µM
COc1cccc(C(=O)Nc2ccc3c(c2)n(C)c(=O)n3C)c1 | – | inconclusive: 89.1 µM [inhibitor, single point]
COc1ccc(CN(C)C(=O)c2[nH]c(C)c(C(C)=O)c2C)c(OC)c1OC | – | inconclusive: 56.2 µM [inhibitor, partial curve, poor fit]
Cc1ccc(OC/C(=N\O)C(C)(C)C)c([N+](=O)[O-])c1 | inactive: -6.65% | –
Cn1cccc1C(=O)OCC(=O)Nc1cccc(S(=O)(=O)N2CCOCC2)c1 | – | inconclusive: 89.1 µM [inhibitor, partial curve]
Cc1c(Cc2ccccc2)c(=O)oc2c(C)c(OCC(=O)NCC3CCC(C(=O)O)CC3)ccc12 (configuration not stated) | – | inconclusive: 89.1 µM [inhibitor, single point]
O=C(CNc1ccc2ccccc2c1)N/N=C/c1ccc(C(=O)O)cc1 | – | inconclusive: 79.4 µM [inhibitor, partial curve]
CCNc1sc(C(=O)c2cccs2)c(N)c1-c1nc2ccccc2s1 | – | inconclusive: 39.8 µM [inhibitor, full curve, poor fit]
CC(=O)c1cccc(NC(=O)C2C3C=CC(C3=C(c3ccccc3)c3ccccc3)C2C(=O)O)c1 (configuration not stated) | – | inconclusive: 79.4 µM [inhibitor, single point]
Cc1ccc(C(=O)N/C(=C\c2ccc(-c3ccc(Br)cc3)o2)C(=O)NC2CCS(=O)(=O)C2)cc1 (configuration not stated) | inactive: -5.25% | –
O=C(N/N=C/c1cc([N+](=O)[O-])ccc1O)c1ccc(COc2ccc3c(c2)CCC3)o1 | – | active: 44.7 µM
CCOC(=O)c1noc2nc(C)n(CC(=O)Nc3ccc(OC)c(Cl)c3)c(=O)c12 | inactive: -0.138% | –
CCn1nc(C(=O)Nc2ccccc2N2CCCC2)c2ccccc2c1=O | – | active: 39.8 µM
